# Several values for one entry are separate records, joined by “and”; a condition that tells them apart may be missing. Identical values can stand only once. Screen size: about 270,000 compounds; about 5,800 (2.1%) were called active. This list was built around the results that the source calls inconclusive (neither active nor inactive); the mix of calls is not that of the screen. Calls follow the shape of the dose curve; as a rule, active = well fitted inhibition curve with a large enough effect; inconclusive = small, poorly fitted or top-dose-only effect; inactive = flat fitted curve, though single readings scatter. Where the call is inconclusive, the potency comes from a doubtful curve fit.
# Target: Microtubule-associated protein tau (Homo sapiens) (UniProt P10636)
# Chain of UniProt P10636 (P10636 whole entry, looked up): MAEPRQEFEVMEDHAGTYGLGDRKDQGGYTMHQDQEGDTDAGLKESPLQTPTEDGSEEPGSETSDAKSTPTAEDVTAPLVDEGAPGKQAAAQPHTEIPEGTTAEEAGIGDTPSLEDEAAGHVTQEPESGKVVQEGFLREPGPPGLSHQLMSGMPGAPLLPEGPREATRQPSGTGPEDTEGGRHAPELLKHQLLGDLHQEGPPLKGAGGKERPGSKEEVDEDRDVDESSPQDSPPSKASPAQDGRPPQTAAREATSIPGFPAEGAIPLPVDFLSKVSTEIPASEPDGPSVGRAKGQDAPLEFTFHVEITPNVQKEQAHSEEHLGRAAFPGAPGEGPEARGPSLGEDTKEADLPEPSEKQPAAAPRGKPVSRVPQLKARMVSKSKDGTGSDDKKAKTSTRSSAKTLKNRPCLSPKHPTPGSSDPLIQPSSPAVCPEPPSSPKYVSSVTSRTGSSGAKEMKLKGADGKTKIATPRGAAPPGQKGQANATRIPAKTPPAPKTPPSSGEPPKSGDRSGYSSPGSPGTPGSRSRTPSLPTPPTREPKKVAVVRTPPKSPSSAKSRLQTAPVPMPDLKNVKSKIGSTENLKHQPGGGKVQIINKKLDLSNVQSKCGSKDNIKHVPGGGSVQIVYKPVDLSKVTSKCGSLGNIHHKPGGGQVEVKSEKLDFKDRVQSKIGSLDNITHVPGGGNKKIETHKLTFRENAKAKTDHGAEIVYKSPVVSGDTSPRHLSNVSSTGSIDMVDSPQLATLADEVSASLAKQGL
# Assay: qHTS for Inhibitors of Tau Fibril Formation, Thioflavin T Binding; also: nearly all actives have a fitted effect of over 55% in size
# Settings: recombinant tau K18 P301L, heparin-induced fibrillization, ThT fluorescence; series mostly up to 57.4 µM; activity, negative = inhibition: at the top concentration
# Method in brief: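 Using a mix of unlabeled (15 uM) and Alexa 594-labeled (0.24 uM) tau K18 P301L, heparin-triggered fibrillization over 6 hr at 37 C was scored by ThT fluorescence.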
# % is scaled to controls: 0 for no effect and ±100 for the full control effect; potency is read from the fitted curve at half-maximal effect; tags tell the direction and shape of the fitted curve.
Structure (SMILES),"activity, negative = inhibition",Potency
CC(C)(Oc1ccc(Br)cc1)C(=O)Nc1cc(-c2nc3ccccc3[nH]2)ccc1Cl,inactive: -1.13%,–
CCOC(=O)Cc1nn2c(=O)cc(C)nc2s1,–,"inconclusive: 14.1 µM [inhibitor, partial curve, poor fit]"
c1cnc(-c2noc(CN3CCN(C4C5CC6CC(C5)CC4C6)CC3)n2)cn1 (stereo unspecified),inactive: -5.43%,–
Cc1c(Br)c(=O)oc2c(Br)c(O)ccc12,inactive: -5.74%,–
CCCOc1ccc(/C=N/Nc2ccccc2[N+](=O)[O-])c(OCCC)c1,–,"inconclusive: 15.8 µM [inhibitor, partial curve]"
Cc1[nH]c2ccccc2c1C1=NNC(=Nc2ccc(F)cc2)SC1,–,active: 14.1 µM
NC(=O)COC(=O)c1cc(-c2ccco2)nc2ccccc12,–,"inconclusive: 28.2 µM [inhibitor, partial curve]"
O=C(NNc1ccccc1[N+](=O)[O-])Nc1cccc(Cl)c1,–,"inconclusive: 28.2 µM [inhibitor, single point]"
O=C(CSCc1ccccc1)N/N=C/c1cc2c(cc1Br)OCO2,inactive: 0.512%,–
CCN(Cc1ccccc1)c1ccc(/C=N/NC(=S)NC(C)C)cc1,inactive: -17.4%,–
CCCOc1ccc(C2C(C(=O)c3ccc(C)o3)=C(O)C(=O)N2CCN2CCOCC2)cc1OC (stereo unspecified),–,"inconclusive: 39.8 µM [inhibitor, single point]"
CCCCC(=O)N/N=C/c1ccc(-c2ccc([N+](=O)[O-])cc2)o1,–,active: 4.47 µM
CCCCNc1nc2ccccc2c2nc(-c3ccccc3)nn12,inactive: -7.77%,–
Cc1ccc(Nc2nc(CSc3nnc(-c4cccnc4)n3-c3ccccc3C)cs2)cc1,inactive: 7.86%,–
COC(=O)c1ccc(OC(=O)C2CC(=O)N(c3ccc(C)cc3C)C2)cc1 (stereo unspecified),–,"inconclusive: 25.1 µM [inhibitor, partial curve]"
COC(=O)c1nc(NC(=O)c2ccccc2Cl)n[nH]1,–,"inconclusive: 20 µM [inhibitor, single point]"
CCN(C(=O)c1cc2ccccc2o1)C12CC3CC(CC(C3)C1)C2,–,"inconclusive: 39.8 µM [inhibitor, single point]"
COc1cccc(OC)c1OCCCOc1ccc([N+](=O)[O-])cc1Cl,–,"inconclusive: 20 µM [inhibitor, single point]"
Cc1ccc(S(=O)(=O)NCC2CCC(C(=O)NCCCOC(C)C)CC2)cc1 (stereo unspecified),–,inactive
Fc1ccccc1N1CCN(c2nccn3nc(-c4ccc(Br)cc4)cc23)CC1,inactive: -8.48%,–
COc1cccc(NC(=O)Nc2nnc(N3CCCCC3C)s2)c1 (stereo unspecified),–,"inconclusive: 8.91 µM [inhibitor, partial curve]"
CCc1cc(C(c2ccccc2OC)N2CCOCC2)c(NC(=O)c2ccccc2)s1 (stereo unspecified),–,"inconclusive: 31.6 µM [inhibitor, partial curve]"
N#CC(C#N)=c1ccc2c(c1)N1C3=C(CCCC3)CC3CCCCC31N=2 (stereo unspecified),–,"inconclusive: 5.62 µM [inhibitor, full curve]"
O=C(CC1(O)C(=O)N(Cc2ccccc2Cl)c2ccccc21)c1ccco1 (stereo unspecified),inactive: -8.73%,–

Structure (SMILES),"activity, negative = inhibition",Potency
CC1=C(C(=O)N2CCOCC2)C(c2cccs2)NC(=O)N1 (stereo unspecified),inactive: 2.12%,–
O=C(NC(CSSCC(NC(=O)c1ccccc1)C(=O)O)C(=O)O)c1ccccc1 (stereo unspecified),–,"inconclusive: 25.1 µM [inhibitor, single point]"
CC(NC(=O)CCN1C(=O)c2ccccc2C1=O)c1ccc2c(c1)CCCC2 (stereo unspecified),inactive: -11.9%,–
COc1cc(OC)c2c(=O)c(O)c(-c3ccc(OC)c(OC)c3)oc2c1,–,"inconclusive: 7.08 µM [inhibitor, full curve]"
CSc1ncc(CN2CCc3c([nH]c4ccccc34)C2c2cccc(C)n2)cn1 (stereo unspecified),–,"inconclusive: 12.6 µM [inhibitor, partial curve]"
CSC1=N/C(=C\c2ccc(Br)o2)C(=O)S1,–,"inconclusive: 22.4 µM [inhibitor, partial curve]"
CC(=O)C1=C(c2ccccc2)NC(=O)NC1c1ccc(O)c(O)c1 (stereo unspecified),–,"inconclusive: 15.8 µM [inhibitor, partial curve]"
Nc1ccc(C#Cc2ccccc2)cc1,–,"inconclusive: 2.82 µM [inhibitor, partial curve, poor fit]"
CC1(OC(=O)C2CCCC2)C(=O)C=C2C=C(c3ccsc3)N(CCN3CCOCC3)C=C2C1=O (stereo unspecified),–,"inactive and inconclusive: 7.08 µM [inhibitor, single point]"
CCN1CCN(C(c2ccccc2Cl)c2c(O)cc(C)n(CCOC)c2=O)CC1 (stereo unspecified),–,"inconclusive: 12.6 µM [inhibitor, partial curve]"
Cn1c(O)c(N=NC(=S)Nc2ccccc2F)c2cc(S(=O)(=O)N3CCOCC3)ccc21,–,"inconclusive: 8.91 µM [inhibitor, full curve, poor fit]"
O=c1nc2s/c(=C\c3ccc(-c4ccccc4[N+](=O)[O-])o3)c(=O)n2nc1-c1ccccc1,–,active: 7.08 µM
O=c1[nH]cnc2c1c(-c1ccccc1)cn2-c1ccc(F)cc1,–,"inconclusive: 28.2 µM [inhibitor, single point]"
Cc1ccc(-n2c(COCC(=O)O)nc3cccnc32)cc1,inactive: 4.29%,–
O=C(Nc1ccccc1)c1ccc(CSc2ncccn2)cc1,–,"inconclusive: 0.355 µM [inhibitor, partial curve]"
CCCOc1ccc(C(=O)N/N=C/c2ccc(-c3ccc(S(=O)(=O)Nc4ncccn4)cc3)o2)cc1,–,"inconclusive: 7.94 µM [inhibitor, partial curve]"
O=C(Nc1ccc2c(c1)OCO2)Nc1ccc(Br)cn1,–,"inconclusive: 14.1 µM [inhibitor, partial curve]"
Cc1cc(/C=N/NC(=O)C(O)(c2ccccc2)c2ccccc2)c(C)n1-c1cccc(C(=O)O)c1,–,"inconclusive: 39.8 µM [inhibitor, single point]"
O=C(NC1CCCCCC1)c1ccc2c(=O)n3c(nc2c1)CCCCC3,inactive: -11.8%,–
CCCCSc1ccc(NC(=O)c2cccnc2)cc1,–,"inconclusive: 28.2 µM [inhibitor, partial curve, poor fit]"
CCOc1ccc(N2C(=O)CC(Sc3ccccc3C(=O)O)C2=O)c([N+](=O)[O-])c1 (stereo unspecified),–,"inconclusive: 14.1 µM [inhibitor, partial curve]"
O=C(Cn1c(=O)oc2ccccc21)Nc1nc(-c2ccccc2)cs1,inactive: 3.38%,–
Cc1ccccc1OCCn1c(CCNC(=O)C2CCCCC2)nc2ccccc21,inactive: -8.69%,–
O=C(NCC1CCCO1)c1ccc(COc2ccccc2Br)cc1 (stereo unspecified),–,"inconclusive: 39.8 µM [inhibitor, single point]"

Structure (SMILES),"activity, negative = inhibition",Potency
O=C(NCc1ccco1)c1cccc2c1C(=O)N(C1CCCCC1)C2,inactive: -4.22%,–
CCOC(=O)Cc1ccc(NC(=O)N(Cc2ccc(CC)cc2)Cc2cn[nH]c2-c2ccc(OC)cc2)cc1,–,"inconclusive: 22.4 µM [inhibitor, single point]"
Nc1nn(-c2ccccc2)nc1C(=O)OCc1ccccc1,–,"inconclusive: 17.8 µM [inhibitor, partial curve] and inconclusive: 35.5 µM [inhibitor, single point]"
N#CC(=C1Nc2ccccc2N1)S(=O)(=O)c1ccccc1,inactive: -11.3%,–
CCc1ccc(C2CC(=O)N3CN(c4ccccc4)CSC3=C2C#N)cc1 (stereo unspecified),–,active: 31.6 µM
c1cc(N2CCCC2)ccc1C(c1nnnn1C1CCCCC1)N1CCOCC1 (stereo unspecified),–,"inconclusive: 11.2 µM [inhibitor, partial curve]"
COc1ccc(CCNc2oc(COc3ccccc3F)nc2C#N)cc1,–,"inconclusive: 11.2 µM [inhibitor, partial curve]"
COc1ccc(N(C(=O)c2cccnc2)S(=O)(=O)c2ccccc2)cc1,–,"inconclusive: 31.6 µM [inhibitor, partial curve]"
Cc1ccc(NC(=O)CCC(=O)N/N=C/c2cc([N+](=O)[O-])ccc2O)cc1,–,"inconclusive: 11.2 µM [inhibitor, partial curve]"
O=C(NCc1cccs1)C(=O)NCC(c1ccco1)N1CCN(c2ccc(F)cc2)CC1 (stereo unspecified),–,"inconclusive: 28.2 µM [inhibitor, single point]"
CCCCn1c(=O)nc2n(-c3ccc(Br)cc3)c3ccccc3cc-2c1=O,inactive: -11.3%,–
O=C(c1ccc(Cl)s1)N1CCN(c2ccccc2)CC1,–,"inconclusive: 12.6 µM [inhibitor, partial curve]"
COc1ccc2c(c1)[nH]c1c(=O)n(CCC3=CCCCC3)cnc12,–,"inconclusive: 0.794 µM [inhibitor, full curve]"
O=C(c1ccc2c(c1)N(Cc1ccccc1)C(=O)c1ccccc1S2(=O)=O)N1CCN(Cc2ccccc2)CC1,inactive: -5.1%,–
COc1ccccc1C(=O)Nc1sc(Nc2ccccc2)nc1C(N)=O,–,active: 3.16 µM
COC(=O)/C=C/S(=O)(=O)c1ccc(NC(C)=O)cc1,–,"inconclusive: 0.708 µM [inhibitor, partial curve]"
CCN(CC)C(=O)COc1ccc(/C(C)=N/NC(=O)c2ccccc2O)cc1,–,"inconclusive: 14.1 µM [inhibitor, partial curve]"
COc1ccccc1NC(=O)c1cc2ccccc2o/c1=N\O,–,"inconclusive: 3.98 µM [inhibitor, partial curve]"
COC(=O)Cn1cc(C(=O)C(F)(F)F)c2ccccc21,inactive: -9.56%,–
COc1cc(OC)c2ccc(=O)oc2c1C(CCN1CCCC(C)C1)c1ccc(N(C)C)cc1 (stereo unspecified),inactive: -16.8%,–
CCCCC(=O)Nc1sc2c(c1C(=O)OCC)CCC(C=O)=C2Cl,–,active: 25.1 µM
N#CC1=C(N)NC(SCc2ccc(F)cc2)=C(C#N)C12CCCCC2,inactive: -8.03%,–
COc1ccc(C(=O)Nc2ccc(N3CCCCC3)cc2)cc1Br,–,"inconclusive: 1.58 µM [inhibitor, full curve]"
